Results on 22 compounds are retold here after the supplement of paper PMC4604168 (melanoma cell lines).

This is one part of the list. Single values are uncertain, as repeats are few or missing.
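Further: cells treated in 1,536-well plates, then fixed and DAPI-stained, with nuclei counted from automated high-throughput microscope images.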

In this experiment the test system is C32. Description: cell count relative to DMSO control; melanoma cells; higher = more viable cells. The note with it: library dose: standard library concentration; 72 h.
`Nc1ncn([C@H]2C[C@H](O)[C@@H](CO)O2)c(=O)n1` [decitabine] + C#Cc1cccc(Nc2ncnc3cc(OCCOC)c(OCCOC)cc23)c1 [erlotinib] (first compound 0.5 µM, partner dose 4 µM) gave a cell count of 93%.
Take `CC(=O)O[C@@]12CO[C@@H]1C[C@H](O)[C@@]1(C)C(=O)[C@H](O)C3=C(C)[C@@H](OC(=O)[C@H](O)[C@@H](NC(=O)OC(C)(C)C)c4ccccc4)C[C@@](O)([C@@H](OC(=O)c4ccccc4)[C@H]21)C3(C)C` [Docetaxel] + OCc1c[nH]c2ccccc12 [Indole-3-carbinol] (first compound 0.0005 µM, partner dose 4 µM): the cell count amounted to 81.2%.
In turn, `CO[C@H]1C[C@@H]2CC[C@@H](C)[C@@](O)(O2)C(=O)C(=O)N2CCCC[C@H]2C(=O)O[C@H]([C@H](C)C[C@@H]2CC[C@@H](OCCO)[C@H](OC)C2)CC(=O)[C@H](C)/C=C(\C)[C@@H](O)[C@@H](OC)C(=O)[C@H](C)C[C@H](C)/C=C/C=C/C=C/1C` [everolimus] + COc1cc(Nc2ncc(F)c(Nc3ccc4c(n3)NC(=O)C(C)(C)O4)n2)cc(OC)c1OC [Tamatinib] (first compound 0.1 µM, partner dose 2 µM) registered a cell count of 85.9%.
Then `Nc1ncn([C@H]2C[C@H](O)[C@@H](CO)O2)c(=O)n1` [decitabine] + CN(C)S(=O)(=O)c1ccc2c(c1)/C(=C/c1cc3c([nH]1)CCCC3)C(=O)N2 [SU6656] (first compound 0.5 µM, partner dose 2 µM), with 97.2%.
As for `CO[C@H]1C[C@@H]2CC[C@@H](C)[C@@](O)(O2)C(=O)C(=O)N2CCCC[C@H]2C(=O)O[C@H]([C@H](C)C[C@@H]2CC[C@@H](OCCO)[C@H](OC)C2)CC(=O)[C@H](C)/C=C(\C)[C@@H](O)[C@@H](OC)C(=O)[C@H](C)C[C@H](C)/C=C/C=C/C=C/1C` [everolimus] + COc1cc2ncnc(Nc3ccc(Oc4ccccc4)cc3)c2cc1OC [SrcI1] (first compound 0.1 µM, partner dose 10 µM), the cell count was 105%.
`CO[C@H]1C[C@@H]2CC[C@@H](C)[C@@](O)(O2)C(=O)C(=O)N2CCCC[C@H]2C(=O)O[C@H]([C@H](C)C[C@@H]2CC[C@@H](OCCO)[C@H](OC)C2)CC(=O)[C@H](C)/C=C(\C)[C@@H](O)[C@@H](OC)C(=O)[C@H](C)C[C@H](C)/C=C/C=C/C=C/1C` [everolimus] + COc1ccc(-c2ccc3c(N4CCOCC4)nc(N4C[C@@H](C)O[C@@H](C)C4)nc3n2)cc1CO [KU0063794] (first compound 0.1 µM, partner dose 0.1 µM) returned a cell count of 92.2%.
Then `CC(=O)c1c(C)c2cnc(Nc3ccc(N4CCNCC4)cn3)nc2n(C2CCCC2)c1=O` [palbociclib] + COc1ccc(Cl)c(Nc2nc3ccccc3nc2NS(=O)(=O)c2cccc(NC(=O)C(C)(C)N)c2)c1 [XL147] (first compound 0.2 µM, partner dose 4 µM), with 71.1%; and `CC(=O)c1c(C)c2cnc(Nc3ccc(N4CCNCC4)cn3)nc2n(C2CCCC2)c1=O` [palbociclib] + COc1ccc2c(c1)CCC1C2CCC2(C)C(NCCCCCCN3C(=O)C=CC3=O)CCC12 [U73122] (first compound 0.2 µM, partner dose 2 µM), with 52.5%.
Then `Nc1ccn([C@@H]2O[C@H](CO)[C@@H](O)C2(F)F)c(=O)n1` [gemcitabine] + CO[C@@H]1[C@H](N(C)C(=O)c2ccccc2)C[C@H]2O[C@]1(C)n1c3ccccc3c3c4c(c5c6ccccc6n2c5c31)C(=O)NC4 [Midostaurin] (first compound 0.002 µM, partner dose 0.4 µM), with 75.9%; and `Nc1ccn([C@@H]2O[C@H](CO)[C@@H](O)C2(F)F)c(=O)n1` [gemcitabine] + Cc1nc(Nc2ncc(C(=O)Nc3c(C)cccc3Cl)s2)cc(N2CCN(CCO)CC2)n1 [dasatanib] (first compound 0.002 µM, partner dose 0.02 µM), with 67.4%; and `CC(=O)O[C@@]12CO[C@@H]1C[C@H](O)[C@@]1(C)C(=O)[C@H](O)C3=C(C)[C@@H](OC(=O)[C@H](O)[C@@H](NC(=O)OC(C)(C)C)c4ccccc4)C[C@@](O)([C@@H](OC(=O)c4ccccc4)[C@H]21)C3(C)C` [Docetaxel] + Cc1cc(Nc2cc(N3CCN(C)CC3)nc(/C=C/c3ccccc3)n2)n[nH]1 [ENMD2076] (first compound 0.0005 µM, partner dose 0.2 µM), with 83.1%.
Then `CO[C@H]1C[C@@H]2CC[C@@H](C)[C@@](O)(O2)C(=O)C(=O)N2CCCC[C@H]2C(=O)O[C@H]([C@H](C)C[C@@H]2CC[C@@H](OCCO)[C@H](OC)C2)CC(=O)[C@H](C)/C=C(\C)[C@@H](O)[C@@H](OC)C(=O)[C@H](C)C[C@H](C)/C=C/C=C/C=C/1C` [everolimus] + NCC(=O)Nc1ccc(-n2nc(C(F)(F)F)cc2-c2ccc3c(ccc4ccccc43)c2)cc1 [OSU03012] (first compound 0.1 µM, partner dose 5 µM), with 76.2%; and `CC(=O)c1c(C)c2cnc(Nc3ccc(N4CCNCC4)cn3)nc2n(C2CCCC2)c1=O` [palbociclib] + Oc1cc(-c2nc(-c3ccccc3)[nH]c2-c2ccncc2)ccc1Cl [L779450] (first compound 0.2 µM, partner dose 1 µM), with 64.5%; and `Nc1ccn([C@@H]2O[C@H](CO)[C@@H](O)C2(F)F)c(=O)n1` [gemcitabine] + CC1(C)NC(=O)N(c2ccc([N+](=O)[O-])c(C(F)(F)F)c2)C1=O [nilutamide] (first compound 0.002 µM, partner dose 5 µM), with 104%.
`CO[C@H]1C[C@@H]2CC[C@@H](C)[C@@](O)(O2)C(=O)C(=O)N2CCCC[C@H]2C(=O)O[C@H]([C@H](C)C[C@@H]2CC[C@@H](OCCO)[C@H](OC)C2)CC(=O)[C@H](C)/C=C(\C)[C@@H](O)[C@@H](OC)C(=O)[C@H](C)C[C@H](C)/C=C/C=C/C=C/1C` [everolimus] + C=CCNC1=C2C[C@@H](C)C[C@H](OC)[C@H](O)[C@@H](C)/C=C(\C)[C@H](OC(N)=O)[C@@H](OC)/C=C\C=C(/C)C(=O)NC(=CC1=O)C2=O [Tanespimycin] (first compound 0.1 µM, partner dose 0.01 µM) displayed a cell count of 28.8%.
`CC(=O)O[C@@]12CO[C@@H]1C[C@H](O)[C@@]1(C)C(=O)[C@H](O)C3=C(C)[C@@H](OC(=O)[C@H](O)[C@@H](NC(=O)OC(C)(C)C)c4ccccc4)C[C@@](O)([C@@H](OC(=O)c4ccccc4)[C@H]21)C3(C)C` [Docetaxel] + CC1(C)NC(=O)N(c2ccc([N+](=O)[O-])c(C(F)(F)F)c2)C1=O [nilutamide] (first compound 0.0005 µM, partner dose 5 µM) returned a cell count of 79.1%.
As for `CC(=O)c1c(C)c2cnc(Nc3ccc(N4CCNCC4)cn3)nc2n(C2CCCC2)c1=O` [palbociclib] + NCC(=O)Nc1ccc(-n2nc(C(F)(F)F)cc2-c2ccc3c(ccc4ccccc43)c2)cc1 [OSU03012] (first compound 0.2 µM, partner dose 5 µM), the cell count worked out at 65%.
`Nc1nc(F)nc2c1ncn2[C@@H]1O[C@H](CO)[C@@H](O)[C@@H]1O` [fludarabine] + Nc1cccc2c1CN(C1CCC(=O)NC1=O)C2=O [lenalidomide] (first compound 1 µM, partner dose 5 µM) had a cell count of 100%.
On to `CC(=O)O[C@@]12CO[C@@H]1C[C@H](O)[C@@]1(C)C(=O)[C@H](O)C3=C(C)[C@@H](OC(=O)[C@H](O)[C@@H](NC(=O)OC(C)(C)C)c4ccccc4)C[C@@](O)([C@@H](OC(=O)c4ccccc4)[C@H]21)C3(C)C` [Docetaxel] + Oc1cc(-c2nc(-c3ccccc3)[nH]c2-c2ccncc2)ccc1Cl [L779450] (first compound 0.0005 µM, partner dose 1 µM), for which the cell count was determined as 46.2%.
Then `Nc1ncn([C@H]2C[C@H](O)[C@@H](CO)O2)c(=O)n1` [decitabine] + CC1(C)NC(=O)N(c2ccc([N+](=O)[O-])c(C(F)(F)F)c2)C1=O [nilutamide] (first compound 0.5 µM, partner dose 5 µM), with 101%; and `CC(=O)O[C@@]12CO[C@@H]1C[C@H](O)[C@@]1(C)C(=O)[C@H](O)C3=C(C)[C@@H](OC(=O)[C@H](O)[C@@H](NC(=O)OC(C)(C)C)c4ccccc4)C[C@@](O)([C@@H](OC(=O)c4ccccc4)[C@H]21)C3(C)C` [Docetaxel] + CN(NC(=O)CC(=O)NN(C)C(=S)c1ccccc1)C(=S)c1ccccc1 [STA4783] (first compound 0.0005 µM, partner dose 0.03 µM), with 29.9%; and `CC(=O)O[C@@]12CO[C@@H]1C[C@H](O)[C@@]1(C)C(=O)[C@H](O)C3=C(C)[C@@H](OC(=O)[C@H](O)[C@@H](NC(=O)OC(C)(C)C)c4ccccc4)C[C@@](O)([C@@H](OC(=O)c4ccccc4)[C@H]21)C3(C)C` [Docetaxel] + O=C(O)[C@@H]1[O][Sb](=[O])([O][Sb]2(=[O])[O][C@H]([C@H](O)CO)[C@H](O)[C@H](C(=O)O)[O]2)[O][C@H]([C@H](O)CO)[C@@H]1O [stibogluconate] (first compound 0.0005 µM, partner dose 10 µM), with 74.9%.
